Measurements taken from patent publication US20220153864A1 (Pieris, published 2022).
Values belong to the binder of their own block, whether it stands above or below them.

Columns and labels:
[1] = target: T1, human CD137 expressed on cells (Flp-In-CHO::huCD137; NFkB-luc2/CD137 Jurkat cells) (human, UniProt Q07011 24-255); assay: flow cytometry on Flp-In-CHO::huCD137 cells, anti-human IgG detection
T1 construct: whole, on cells; also called human CD137-expressing cells
Procedure: For flow cytometric analysis, respective cell lines were incubated with an exemplary fusion protein (SEQ ID NOs: 87 and 82), the GPC3 antibody or the CD137 specific lipocalin mutein (Fc fusion) as included in the fusion protein (SEQ ID NOs: 81 and 82 and SEQ ID NO: 98, respectively), a reference CD137 antibody SEQ ID NOs: 26 and 27, or an isotype control (SEQ ID NOs: 24 and 25) and detected using a fluorescently labeled anti-human IgG antibody in FACS analysis as described in the following:
(§1) 5×10⁴ cells per well were incubated for 1 h in ice-cold PBS containing 5% fetal calf serum (PBS-FCS). A dilution series of the testing molecule were added to the cells and incubated for 1 h on ice. Cells were washed twice with PBS and then incubated with a goat anti-hlgG Alexa647-labeled antibody or goat anti-hlgG Alexa488-labeled antibody for 30 min on ice. Cells were subsequently washed and analyzed using iQue Flow cytometer (Intellicyte Screener). Mean geometric fluorescent signals were plotted and fitted with Graphpad software. The geometric means of the fluorescence intensity were used to calculate EC₅₀ values using a four-parameter logistic regression with bottom fixed to background.

[2] = target: T2, human GPC3 expressed on cells (SK-Hep1::huGPC3; HepG2, Hep3B and MKN-45 tumor cells) (human, UniProt P51654 25-554); assay: flow cytometry, HepG2 tumor cells (GPC3 high), detection labelled anti-human IgG, GeoMean BL1-H
T2 construct: whole, on cells; also called GPC3-positive tumor cells; human GPC3-expressing cells
Procedure: as §1
For flow cytometric analysis, tumor cell lines with different GPC3 expression levels (high to moderate expression: HepG2>Hep3B>MKN-45) and GPC3 negative cell line NCI-N87 were incubated with an exemplary fusion protein SEQ ID NOs: 87 and 82, the GPC3 antibody or the CD137 specific lipocalin mutein (Fc fusion) as included in the fusion protein (SEQ ID NOs: 81 and 82 and SEQ ID NO: 98, respectively), a reference CD137 antibody SEQ ID NOs: 26 and 27, or an isotype control (SEQ ID NO: 24 and 25), and detected using a fluorescently labeled anti-human IgG antibody as described in Example 6.

[3] = target: T3, recombinant human GPC3 (huGPC3) (R&D Systems) (human, UniProt P51654 25-559); assay: SPR (Biacore T200), huGPC3 as analyte, 1:1 model
T3 construct: also called biotinylated huGPC3
Procedure: (§2) The anti-human IgG Fc antibody (GE Healthcare) was immobilized on a CM5 sensor chip using standard amine chemistry: the carboxyl groups on the chip were activated using 1-ethyl-3-(3-dimethylaminopropyl)-carbodiimide (EDC) and N-hydroxysuccinimide (NHS). Subsequently, anti-human IgG Fc antibody solution (GE Healthcare) at a concentration of 25 μg/mL in 10 mM sodium acetate (pH 5.0) was applied at a flow rate of 5 μL/min until an immobilization level of 6000-10000 resonance units (RU) was achieved. Residual non-reacted NHS-esters were blocked by passing a solution of 1M ethanolamine across the surface. The reference channel was treated in an analogous manner. Subsequently, testing fusion proteins (SEQ ID NOs: 87 and 82 and CD137Ac1-Fusion 1) or the GPC3 antibody as included in the fusion protein (SEQ ID NOs: 81 and 82) at 0.2 μg/ml in HBS-EP+ buffer was captured by the anti-human IgG-Fc antibody at the chip surface for 180 s at a flow rate of 10 μL/min. After each capture step, the needle was washed.
(§3) The binding assay was carried out with a contact time of 180 s, a dissociation time of 900 s, and a flow rate of 30 μL/min. After each injection, the needle was cleaned with 40 mM NaOH+20% isopropanol. All measurements were performed at 25° C. […] Prior to the protein measurements, three startup cycles were performed for conditioning purposes. Data were evaluated with Biacore T200 Evaluation software (v2.0). Double referencing was used and the 1:1 binding model was used to fit the raw data.

[4] = target: T3, recombinant human GPC3 (huGPC3) (R&D …); assay: ELISA, huGPC3 coated, detection anti-human IgG Fc-HRP
Procedure: (§4) Recombinant huGPC3 (R&D Systems) at the concentration of 1 μg/mL in PBS was coated overnight on microtiter plates at 4° C. After five washes with 100 μL PBS-0.05% T (PBS supplemented with 0.05% (v/v) Tween 20), the plates were blocked with 2% BSA (w/v) in PBS-0.1% T (PBS-0.1% T-2% BSA) for 1 h at room temperature. After washing with 100 μL PBS-0.05% T (PBS supplemented with 0.05% (v/v) Tween 20) five times, exemplary fusion proteins (SEQ ID NOs: 87 and […] and CD137Ac1-Fusion 1 to 7) or the GPC3 antibody as include in the fusion proteins (SEQ ID NOs: 81 and 82) at different concentrations were added to the wells and incubated for 1 h at room temperature, followed by another wash step. Bound molecules under study were detected by incubation with 1:5000 diluted anti-human IgG Fc-HRP (Jackson Laboratory) in PBS-0.1% T-2% BSA. After an additional wash step, fluorogenic HRP substrate (QuantaBlu, Thermo) was added to each well and the fluorescence intensity was detected using a fluorescence microplate reader.
Exemplary results are depicted in FIG. 2A-2D, together with the fit curves resulting from a 1:1 binding sigmoidal fit, where the EC₅₀ value and the maximum signal were free parameters, and the slope was fixed to unity.

[5] = target: T4, recombinant cynomolgus GPC3 (cyGPC3) (R&D Systems) (cynomolgus, UniProt A0A2K5VK50 24-558); assay: ELISA, cyGPC3 coated
Procedure: as §4
(§5) The same ELISA setup was also employed to determine the binding potency of fusion proteins to cynomolgus GPC3 and huCD137, where recombinant cyGPC3 (R&D Systems) or huCD137-His (recombinant human CD137 with C-terminal polyhistidine tag, R&D Systems) was instead coated on a microtiter plate. The testing agents were similarly titrated and bound agents were detected via anti-NGAL-HRP. […]

[6] = target: T3, recombinant human GPC3 (huGPC3) (R&D …); assay: dual-binding ELISA: huGPC3 coated, fusion titrated, detection with biotinylated huCD137-His
Procedure: (§6) Recombinant huCD137-His (R&D Systems) in PBS (1 μg/mL) was coated overnight on microtiter plates at 4° C. The plates were washed five times after each incubation step with 100 μL PBS-0.05% T. The plates were blocked with PBS-0.1% T-2% BSA for 1 h at room temperature and subsequently washed again. Different concentrations of tested fusion proteins were added to the wells and incubated for 1 h at room temperature, followed by a wash step. Subsequently, biotinylated huGPC3 was added at a constant concentration of 1 μg/mL in PBS-0.1% T-2% BSA for 1 h. After washing, a 1:5000 dilution of ExtrAvidin-HRP (Sigma-Aldrich) in PBS-0.1% T-2% BSA was added to the wells and incubated for 1 h. After an additional wash step, fluorogenic HRP substrate (QuantaBlu, Thermo) was added to each well, and the fluorescence intensity was detected using a fluorescence microplate reader.
The dual binding of fusion proteins was also tested with a reverse set-up where recombinant huGPC3 (R&D Systems) was coated on microtiter plates at 1 μg/ml and the bound fusion proteins were detected via the addition of 5 μg/mL biotinylated huCD137-His.
(§7) Exemplary dual binding data are shown in FIG. 3, together with the fit curves resulting from a 1:1 sigmoidal binding fit, where the EC₅₀ value and the maximum signal were free parameters, and the slope was fixed to unity.

[7] = target: T5, huCD137-His (recombinant human CD137 with C-terminal polyhistidine tag, R&D Systems) (human, UniProt Q07011 24-186); assay: ELISA, huCD137-His coated, detection anti-NGAL-HRP
T5 construct: also called biotinylated huCD137-His; not shown: C-terminal polyhistidine tag
T5 sequence (Q07011 24-255): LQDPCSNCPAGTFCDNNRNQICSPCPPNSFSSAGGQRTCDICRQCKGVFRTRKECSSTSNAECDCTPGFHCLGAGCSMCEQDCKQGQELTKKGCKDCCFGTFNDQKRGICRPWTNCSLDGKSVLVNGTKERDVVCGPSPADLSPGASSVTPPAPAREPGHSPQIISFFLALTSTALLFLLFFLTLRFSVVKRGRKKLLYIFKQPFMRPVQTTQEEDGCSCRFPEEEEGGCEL
Procedure: as §4, §5

[8] = target: T4, recombinant cynomolgus GPC3 (cyGPC3) …; assay: SPR (Biacore T200), cyGPC3 as analyte, 1:1 model
Procedure: as §2, §3

[9] = target: T5, huCD137-His (recombinant human CD137 …); assay: dual-binding ELISA: huCD137-His coated, fusion titrated, detection with biotinylated huGPC3
Procedure: as §6, §7

EC50 [1]: 18 nM | binding result [2]: no binding (tested: about 200 nM)
B1: CD137 specific lipocalin mutein (Fc fusion) (SEQ ID NO: 98) (Fc fusion)
chain: [omitted - human IgG4 Fc with S228P F234A L235A (EU numbers)]GGGGSGGGGSGGGGSQDSTSDLIPAPPLSKVPLQQNFQDNQFHGKWYVVGQAGNIRLREDKDPIKMMATIYELKEDKSYDVTMVKFDDKKCMYDIWTFVPGSQPGEFTLGKIKSFPGHTSSLVRVVSTNYNQHAMVFFKFVFQNREEFYITLYGRTKELTSELKENFIRFSKSLGLPENHIVFPVPIDQCIDG

Kd [3]: 0.737 nM | koff [3]: 0.000151 s⁻¹ | kon [3]: 205000 M⁻¹ s⁻¹ | EC50 [4]: 0.24 nM | EC50 [5]: 0.41 nM | EC50 [1]: 4.68 nM | EC50 [6]: 1 nM | EC50 [7]: 0.15 nM | Kd [8]: 0.669 nM | koff [8]: 0.000141 s⁻¹ | kon [8]: 211000 M⁻¹ s⁻¹ | EC50 [9]: 4.2 nM
B2: previously known CD137/GPC3 bispecific fusion protein (SEQ ID NO: 83) (other)
chain: QDSTSDLIPAPPLSKVPLQQNFQDNQFQGKWYVVGRAGNVGLREDKDPPKMWATIYELKEDKSYDVTNVRFARKKCTYSIGTFVPGSQPGEFTLGQIKSEPGGTANLVRVVSTNYNQHAMVFFKEVYQNREIFFIILYGRTKELTSELKENFIRFSKSLGLPENHIVFPVPIDQCIDGGGGGSGGGGSGGGGS[omitted - human IgG4 Fc with S228P F234A L235A (EU numbers)]GGGGSGGGGSGGGGSQDSTSDLIPAPPLSKVPLQQNFQDNQFHGKWYVVGQAGNIRLREDKDPIKMMATIYELKEDKSYDVTMVKFDDKKCMYDIWTFVPGSQPGEFTLGKIKSFPGHTSSLVRVVSTNYNQHAMVFFKFVFQNREEFYITLYGRTKELTSELKENFIRFSKSLGLPENHIVFPVPIDQCIDG
